Screen size: about 110,000 compounds; about 230 (0.21%) showed an effect of 50% or more. Some of the results follow.
What follows are compounds tested against DPAP1 (Plasmodium falciparum, UniProt Q8IIJ9) (assay: primary screen, percent inhibition; read by cleavage of a fluorogenic dipeptide substrate; higher = more effect of the substance).
Parameters: species or system P. falciparum D10 trophozoite lysates; single well
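Also: 30 min substrate incubation versus DMSO and 10 µM JCP410 controls.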

Sequence of DPAP1 (Q8IIJ9 whole entry, looked up): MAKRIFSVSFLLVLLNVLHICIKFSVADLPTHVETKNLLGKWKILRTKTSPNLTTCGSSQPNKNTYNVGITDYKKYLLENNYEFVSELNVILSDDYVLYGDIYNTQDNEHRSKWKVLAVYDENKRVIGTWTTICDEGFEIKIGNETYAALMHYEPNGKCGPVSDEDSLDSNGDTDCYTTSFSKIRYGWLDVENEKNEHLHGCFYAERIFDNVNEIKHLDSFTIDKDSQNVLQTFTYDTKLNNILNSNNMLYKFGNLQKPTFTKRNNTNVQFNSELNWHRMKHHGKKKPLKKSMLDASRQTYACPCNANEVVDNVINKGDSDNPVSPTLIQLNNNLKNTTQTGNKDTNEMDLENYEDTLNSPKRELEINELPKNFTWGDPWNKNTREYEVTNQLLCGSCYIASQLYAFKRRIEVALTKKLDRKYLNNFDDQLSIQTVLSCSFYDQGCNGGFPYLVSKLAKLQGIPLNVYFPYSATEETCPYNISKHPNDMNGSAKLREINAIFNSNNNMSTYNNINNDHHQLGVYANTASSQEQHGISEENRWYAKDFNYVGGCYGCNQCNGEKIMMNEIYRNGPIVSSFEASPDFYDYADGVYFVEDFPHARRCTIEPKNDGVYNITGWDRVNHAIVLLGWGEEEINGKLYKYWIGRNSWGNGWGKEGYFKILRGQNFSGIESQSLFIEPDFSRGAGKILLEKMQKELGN

Structure (SMILES) | % Inhibition @ 10 uM [%]
COCCCNC(=O)CNS(=O)(=O)c1c(C)cc(C)cc1C | -6.83
COc1ccc(-c2[nH]ncc2C2N=C(N)Nc3nc4ccccc4n32)cc1 (stereo not shown) | 8.96
Cc1cc(OCC(=O)Nc2sc(C)c(C)c2C(N)=O)ccc1Cl | 1.08
O=c1c(/C=N/CCc2ccccc2)c(NCCc2ccccc2)nc2ccccn12 | -3.75
CCn1c(C)cc(/C=C2\NC(=O)N(Cc3ccc(Cl)cc3Cl)C2=O)c1C | -7.31
Nc1c(C(=O)Nc2ccccc2)sc2nc(-c3ccccc3)ccc12 | -6.82
O=C(O)CCCC(=O)N1N=C(c2ccccc2)CC1c1ccc2c(c1)OCO2 (stereo not shown) | -5.96
COc1ccc(NC(=O)CCC2CCCCC2)c(OC)c1 | 2.06
CS(=O)(=O)N(CC(=O)NC1CC2CCC1C2)c1ccccc1F (stereo not shown) | -17.9
O=C(c1ccc2c(c1)ncn2C1CCCCC1)n1ccnc1 | -0.0542
CSC(C)CC(C#N)NC(=O)[C@H](CC(C)C)NC(=O)OCc1ccccc1 (stereo partly shown) | 1.71
CCOC(=O)CC(=O)c1sc2nccc(N(C)C)c2c1N | -4.21
CN1C(=O)C(=CNc2ccc3c(c2)CCC3)C(=O)N(C)C1=O | 4.32
Nc1c2c(=O)[nH]c(=O)c2c(N)c2c(=O)c3ccccc3c(=O)c12 | 5.77
O=C1C=Cc2cc(Br)ccc2C1=O | 33.3
N#CCNC(=O)[C@H](CSCc1ccccc1)NC(=O)c1ccsc1 | 4.54
CCN1C/C(=C/c2ccc(F)cc2)C(=O)/C(=C/c2ccc(F)cc2)C1 | -3.79
Cc1ccc2[nH]cc(CCN)c2c1 | -3.58
C=CCOc1ccc(/C=c2\sc3nc(-c4ccccc4C)nn3c2=O)cc1 | 0.561
Cc1nc([N+](=O)[O-])c(N2CCN(C)CC2)n1Cc1ccccc1 | -0.239
O=C(CN1N=C(c2ccc(Cl)cc2)CCC1=O)NCc1ccc2c(c1)OCO2 | -1.21
Cc1ccccc1CNCc1c(C(=O)O)n(Cc2ccc(F)cc2Cl)c2ccccc12 | 1.25

Structure (SMILES) | % Inhibition @ 10 uM [%]
Cc1cccnc1NS(=O)(=O)c1ccc2[nH]c3c(c2c1)CCCC3 | -3.88
CCOCCCNC(=O)C1CCCN(S(=O)(=O)c2cccc3nsnc23)C1 (stereo not shown) | -2.29
CCc1nc2nc(C)cc(NCc3ccccc3OC)n2n1 | 3.5
CCCCC(=O)Nc1ccc(S(=O)(=O)NC(=O)CC)cc1 | 4.65
CCN1CCCC1CNC(=O)CSCc1cnn(-c2ccccc2)c1-n1cccc1 (stereo not shown) | 0.413
Cc1ccc(C2=N/C(=C/C=C/c3ccccc3)C(=O)O2)cc1C | 0.997
O=C(c1ccc(CS(=O)c2ccc(Cl)cc2)o1)N1CCC2(CC1)OCCO2 (stereo not shown) | -4.96
CCN(CC)C(C)C(=O)c1ccc2ccccc2c1 (stereo not shown) | -0.0494
CNS(=O)(=O)c1cccnc1N1CCN(C(C)C)CC1 | -1.59
CCOc1ccc(-c2nnc(SCC(=O)N3CC(C)CC(C)C3)o2)cc1 (stereo not shown) | 3.51
COC(=O)c1nc2n(n1)C(c1ccc(Cl)cc1Cl)C=C(c1ccc(OC)cc1)N2 (stereo not shown) | -5.19
O=c1[nH]c(=O)n(Cc2ccccc2)c2c1C(C(F)(F)F)(C(F)(F)F)NC(CCc1ccccc1)=N2 | 5.44
CN(C)c1ccc(/C=C/C(=O)/C=C/c2ccco2)cc1 | 2.62
CC1CCN(c2nc3c(=O)n(C)c(=O)n(C)c3[nH]2)CC1 | 1.97
CN(CCc1ccccn1)Cc1ccccc1C(F)(F)F | -6.35
COc1ccc(NC(=O)Cc2ccc(Br)cc2)cc1 | 6.07
CC1CCN(C(=O)c2ccc(N(C)S(C)(=O)=O)cc2)CC1 | -5.14
CC(=O)c1sc(N2C(=O)c3oc4ccccc4c(=O)c3C2c2ccc(C)o2)nc1C (stereo not shown) | 2.16
Cc1ccc(-c2csc(/C(C#N)=C/c3ccc(Cl)cc3)n2)cc1 | -4.31
NS(=O)(=O)c1cccc(NC(=O)c2cc3ccccc3o2)c1 | -2.37
Cc1cc(C(=O)NC(C)c2ccc3c(c2)OCCO3)c2c(C)nn(-c3ccccc3)c2n1 (stereo not shown) | 3.75
Cc1ccc(-c2ccc(/C=C3/SC(N4CCOCC4)=NC3=O)o2)cc1 | 7.5

Structure (SMILES) | % Inhibition @ 10 uM [%]
CN(CCNC(=O)c1csc2c1CCCC2)C1CCCCC1 | -3.21
C=CCc1c(C)nc(-c2ccccc2)nc1O | -0.725
Cc1ccc(Nc2nc(-c3ccc(Cl)c(Cl)c3)cs2)cc1C | 0.986
Oc1nnc(Sc2ncnc3[nH]cnc23)c(O)n1 | -0.0267
O=C(COc1ccccc1)Nc1ccc(C(=O)c2ccccc2)cc1 | -3.09
CCOC(=O)c1ccc(NC(=O)c2cccc(C)c2)cc1 | 0.317
CC(NC(=S)NCCc1ccc(S(N)(=O)=O)cc1)C12CC3CC(CC(C3)C1)C2 (stereo not shown) | 23.1
COc1ccc(C(=O)NCCCc2ccccc2)cc1 | 2.76
COc1ccc2sc(N(CCN(C)C)C(=O)c3cccc(C(F)(F)F)c3)nc2c1 | 0.918
CCOc1ccc(C(=O)n2nc(N)c3cc4cc(OC)ccc4nc32)cc1 | 3.01
CC1=CC2=NC(=O)/C(=C\c3ccc(-c4ccc(F)cc4)o3)C(=N)N2O1 | -1.43
Cc1ccc(N2C(N)=C(C#N)C3(C(=O)N(C)c4ccccc43)C3=C2CC(C)(C)CC3=O)cc1Cl (stereo not shown) | 4.01
CC1CC(C)CN(CCCNC(=O)c2cc3cc4ccc(Cl)cc4nc3o2)C1 (stereo not shown) | 3.53
O=C(Nc1ccccc1C(=O)N1CCCCCC1)c1ccco1 | -11.9
O=C(CCCN1C(=O)CSc2ncccc21)NCCc1ccc(Cl)cc1 | -0.637
COc1ccc(-c2csc3ncn(Cc4ccccc4F)c(=O)c23)cc1OC | 2.56
Cc1nc2nc(N)nn2c(O)c1Cl | -3.64
CC(CNS(=O)(=O)c1ccc(-c2ccc(O)nn2)o1)c1ccccc1 (stereo not shown) | -1.98
O=C(CCNS(=O)(=O)c1cccs1)NCc1ccccc1Cl | -3.79
COc1ccc(CN2CCN(Cc3cccc(OC)c3OC)CC2)c(OC)c1 | -2.99

From PMC6919601, “Identification of Plasmodium dipeptidyl aminopeptidase allosteric inhibitors by high throughput screening” (PLoS ONE, 2019)
